Assays:
[1] = pigs
in vivo = settings: pig, whole blood, iv

steady-state blood level (one-phase exponential model fit) ([1]; 0.5 mg/month iv infusion, 28 days): 0.487 ng/mL
separation in whole blood sirolimus between low dose and high dose cohorts ([1]; 0.5 vs 1.5 mg/month, all time points beyond time zero): 2-3 fold
apparent decline from peak to day 28 sample ([1]; both cohorts (0.5 and 1.5 mg/month)): 31-37%
Cmax (in vivo; 0.5 mg/month): 0.611 ± 0.045 ng/mL
Tmax (in vivo; 0.5 mg/month): 72 h
Tmax (in vivo; 1.5 mg/month): 168 h
SMILES: CO[C@H]1C[C@@H]2CC[C@@H](C)[C@@](O)(O2)C(=O)C(=O)N2CCCC[C@H]2C(=O)O[C@H]([C@H](C)C[C@@H]2CC[C@@H](O)[C@H](OC)C2)CC(=O)[C@H](C)/C=C(\C)[C@@H](O)[C@@H](OC)C(=O)[C@H](C)C[C@H](C)/C=C/C=C/C=C/1C [sirolimus, (3S,6R,7E,9R,10R,12R,14S,15E,17E,19E,21S,23S,26R,27R,34aS)-9,10,12,13,14,21,22,23,24,25,26,27,32,33,34,34a-hexadeca-hydro-9,27-dihydroxy-3-[(1R)-2-[(1 S,3R,4R)-4-hydroxy-3-methoxycyclohexyl]-1-methylethyl]-10,21-dimethoxy-6,8,12,14,20,26-hexamethyl-23,27-epoxy-3H-pyrido[2,1-c][1,4]oxaazacycloh-entriacontine-1,5,11,28,29(4H,6H,31H)-pentone]
